In all, about 33,000 sequences were measured (“E-score (-0.5 to 0.5)”: median about -0.054, highest 2% from about 0.39 on). This is one part of the list.
The sequences below were run against Ylr278c (UniProt Q05854) (assay: PBM E-score (8-mer binding enrichment) (E-score (-0.5 to 0.5)); higher = stronger / more preferred TF binding; most listed sequences are background and not binding sites). Conditions: protein concentration: 200 nM; construct: GST-DNA-binding domain.
Procedure, shortened: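 Using PURExpress in vitro transcription/translation, GST-tagged yeast transcription factors were made in full-length or DNA-binding-domain form. These were applied at about 100-200 nM to double-stranded universal all-10-mer Agilent arrays, and bound protein was detected with fluorescent anti-GST. Scans were normalised with masliner before the Universal PBM Analysis Suite assigned E-scores to ungapped eight-base words pooled with their reverse complements.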

| Sequence | PBM E-score |
| --- | --- |
| ACCCTCAC | -0.216 |
| GGAAGATA | 0.0872 |
| CGCACCTC | 0.135 |
| AAGCTAGA | -0.183 |
| CAGTTGCA | -0.154 |
| CATGTTAC | -0.196 |
| GTAGCAAA | -0.0601 |
| TAGCGTCA | -0.195 |
| CCATAGCC | -0.101 |
| CAGCCCCG | 0.326 |
| CCGGCCGA | 0.415 |
| CACTCTTC | -0.0215 |
| ATCGGCAT | 0.328 |
| GTTAATGA | -0.0742 |
| CGACAGCC | -0.00437 |
| AAGACATC | -0.066 |
| CACGCAGG | 0.0584 |
| CAACCCGG | 0.229 |
| TGATCAAA | -0.231 |
| ATAGTAAA | -0.166 |
| GAAATAGC | 0.0894 |
| AACCGCCA | -0.0604 |
| CCAGTCAC | -0.182 |
| CTGCGGCA | 0.151 |
| CGTTACCC | -0.103 |

| Sequence | PBM E-score |
| --- | --- |
| GACGTACA | -0.116 |
| GTTTCAGA | -0.0705 |
| ACCCAAGA | -0.149 |
| AGCGAGCC | 0.00731 |
| AGAGAGTC | -0.267 |
| CCGTCGGC | 0.366 |
| AAAATTGC | 0.049 |
| CATCGAGA | -0.202 |
| CAATGGTG | -0.248 |
| ATGGTTCC | 0.145 |
| GTGGGAGA | -0.158 |
| CGACCGAG | 0.0759 |
| CAACTTGC | -0.213 |
| CGCGCACA | 0.135 |
| AAAATGTC | 0.112 |
| AGCTCTGG | -0.245 |
| ATGCTAAC | -0.12 |
| ACTCCGAC | 0.481 |
| CCACCTAA | -0.0328 |
| AGACCGCT | -0.0752 |
| CTCAGAAG | -0.174 |
| ACGGGTGG | 0.0866 |
| CATAACAA | 0.0761 |
| GTGGGCAA | -0.0913 |
| AAGTCGCC | 0.0391 |

| Sequence | PBM E-score |
| --- | --- |
| CAGGCAAA | -0.0595 |
| GCGCTAAC | -0.0799 |
| CCTGGACC | -0.292 |
| ATCGGAAC | 0.406 |
| ACCCCACG | 0.106 |
| ACGTCTAC | -0.163 |
| CCAGAGCG | -0.00204 |
| AAATCCCC | 0.205 |
| CTAACTAA | -0.118 |
| AGCCTGAA | -0.0256 |
| ATGCTCGC | -0.172 |
| AACTTGGC | -0.102 |
| ACTGACGG | 0.138 |
| ACTCCCTC | -0.121 |
| ACCATTGG | -0.248 |
| GACGCATA | -0.0119 |
| AACGCCTA | -0.117 |
| ACACACTC | -0.125 |
| CATGAATA | -0.31 |
| ATCACACA | -0.159 |
| CATCGACA | -0.0818 |
| AAGTGTGG | 0.0694 |
| AGGCCTGC | 0.00429 |
| AGTCCTCG | -0.132 |
| GGAGCGGA | 0.396 |

| Sequence | PBM E-score |
| --- | --- |
| CGGGAACG | 0.237 |
| ACCCCGAG | 0.319 |
| AGCAGCGC | -0.102 |
| GGTGAGTA | -0.184 |
| AGTAGCAA | -0.00356 |
| CAAAACCC | 0.223 |
| CGCGCCAC | -0.00415 |
| AGACCCAA | -0.0698 |
| CCAGCGTC | -0.00155 |
| CACTCATC | 0.00846 |
| GTGGAAAA | 0.0415 |
| GTGCGAAA | -0.127 |
| AGACCACG | -0.0802 |
| AAACAAGA | -0.0926 |
| AGGACTTC | -0.0413 |
| CATCTTCG | 0.0625 |
| GTCACTGA | -0.0871 |
| ATTCTGAG | -0.0104 |
| TATTGTCA | -0.09 |
| ATTTCACA | -0.045 |
| ACATGCCT | -0.19 |
| ACCGCCGA | 0.324 |
| CTTACAAA | -0.0607 |
| GACAATGC | 0.0317 |
| GAGATCCA | 0.0182 |

| Sequence | PBM E-score |
| --- | --- |
| CGCGATCC | 0.131 |
| ACACGAAA | 0.0722 |
| ACGGTGCG | 0.0201 |
| GTCAATTA | -0.0587 |
| TAGTTATA | -0.05 |
| GGCAACAA | -0.145 |
| AGAGATTC | 0.054 |
| AATTCCGA | 0.48 |
| AGATCTGG | -0.142 |
| AACGGAGC | 0.309 |
| GGCTGCCA | -0.0671 |
| CCCCGTAC | -0.0447 |
| CACACGTC | -0.159 |
| AAGTCACT | -0.195 |
| ACTCCCGG | 0.396 |
| CAGATGTC | 0.0223 |
| GATGGAGA | 0.0634 |
| CCTCCCTA | -0.209 |
| CTCAGCTC | 0.0136 |
| ATGACAGC | -0.318 |
| GAGGAAGC | -0.0167 |
| CTCTACCC | -0.264 |
| ACGGGGCC | 0.112 |
| CTTTAAGC | -0.0581 |
| CTCGATCC | -0.0661 |

| Sequence | PBM E-score |
| --- | --- |
| CGACCAAC | -0.0399 |
| AATACTAG | -0.0593 |
| AAGATCTC | -0.116 |
| GGGAACAC | 0.0932 |
| ACCCATGC | -0.175 |
| TCATCAGA | -0.192 |
| AGACACCG | 0.124 |
| GGTGGTAC | 0.103 |
| TATTTCGA | 0.0125 |
| AACCAACG | -0.0842 |
| ACGCAACT | 0.0554 |
| CTTGGATC | -0.0577 |
| CGGTGGAA | 0.168 |
| GAAGATAA | 0.0918 |
| CAAGTCAG | -0.0983 |
| AACTTAAG | -0.185 |
| AGGGAAAG | -0.163 |
| ATGGAGTC | 0.0654 |
| GAACTGCC | 0.0147 |
| GACCGATA | 0.132 |
| ATCTGCGA | -0.108 |
| CCCGATCG | 0.259 |
| GATCCGCC | 0.276 |
| ACTGTGGA | -0.24 |
| AGGGAGGA | -0.27 |

| Sequence | PBM E-score |
| --- | --- |
| ATTCCCTG | -0.0591 |
| CGCCTGAC | 0.135 |
| GTCGAGCA | -0.33 |
| GTAGCTAC | -0.231 |
| CCGCCTAG | 0.0948 |
| AATGGTCC | 0.0689 |
| AGCAGTAG | -0.244 |
| AAGCGCAA | 0.0312 |
| AGACCAGA | -0.128 |
| ATTGCTAA | -0.202 |
| CACATTAG | -0.266 |
| CGGAACTA | 0.422 |
| AGACGACT | -0.153 |
| GGATATCC | 0.235 |
| GAATATCC | 0.236 |
| CGATACCA | -0.0833 |
| ACATTCTA | -0.269 |
| AACCGTGC | -0.19 |
| CCAATAGA | -0.2 |
| CGGTAGCC | 0.0983 |
| CTGACTAA | 0.101 |
| GGGTATAA | 0.0155 |

From the supplement of paper PMC3334620
